# Results: PubChem BioAssay AID652106 (National Center for Advancing Translational Sciences (NCATS), 2013)
# About 500 (0.14%) of roughly 370,000 compounds were called active. Inconclusive means that the source gave no clear call. Such entries were picked first, then a sample of the others. The call rests on the fitted dose curve; in most records, active means well fitted activation curve with a large enough effect; inconclusive means small, poorly fitted or top-dose-only effect; inactive means no such curve, though single readings can be large or run the other way. Potencies of inconclusive entries are left out as doubtful fits.
# Assay: qHTS of alpha-syn Inhibitors; further: nearly all actives have a fitted effect of over 65% in size
# Settings: Yeast expressing alpha-synuclein, BacTiter-Glo, 24 h; Potency: growth rescue unless noted; series mostly up to 46.1 µM
# Procedure, shortened: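 Readout is rescue of growth in alpha-synuclein-expressing yeast, so inhibitors of toxicity appear as activators. Growth after 24 hr at 30 deg C in galactose medium is quantified by luminescence.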
# Potency means the concentration at half of the fitted maximal effect; tags describe the fitted curve by direction and shape.
row,SMILES,Potency
1,Cc1c(-c2nc(N)nc(Nc3ccccc3)n2)oc2ccccc12,"inconclusive [activator, single point]"
2,CCCCOC(=O)COc1ccc(Cl)cc1Cl,inactive
3,N#Cc1nc(N2CCCC2)nc(N2CCCC2)n1,"inconclusive [activator, single point]"
4,CC(C)(C)OC(=O)NCCc1nnc(S(=O)(=O)Cc2ccc(Cl)cc2Cl)o1,"inconclusive [activator, partial curve]"
5,Cc1cc2c(c(CO)c1CCO)C(=O)[C@@H](C)[C@@H]2O,"inconclusive [activator, single point]"
6,O=C(/C=C/c1ccc2c(c1)OCO2)N1CCN(c2ccccc2F)CC1,inactive
7,OCc1ccc(-c2nn(Cc3ccccc3)c3ccccc23)o1,active: 3.98 µM
8,Cc1ccc(S(=O)(=O)N2CCN(Cc3cccc(F)c3)CC2)cc1,inactive
9,O=C(N/N=C/c1cc([N+](=O)[O-])ccc1O)c1cc(-c2ccccc2)nc2ccccc12,"inconclusive [activator, partial curve]"
10,Cc1ccc(N2C(=O)CSC23C(=O)N(CC(=O)NC2CCCCC2)c2ccccc23)cc1 (stereo unspecified),inactive
11,Cc1nnsc1SCC(=O)O,"inconclusive [activator, single point]"
12,COc1ccc(C(NC(=O)C2CCN(CCCOc3ccccc3)CC2)c2cccs2)cc1 (stereo unspecified),"inconclusive [activator, single point]"
13,Cc1cccc(C(=O)NC2CCN(C(=O)N3CCOCC3)CC2)c1,"inconclusive [activator, single point]"
14,CC1=C(C(=O)N(C(C)C)C(C)C)CC(CC(=O)NCCN2CCOCC2)C(=O)N1Cc1ccccc1 (stereo unspecified),"inconclusive [activator, single point]"
15,CCSc1nnc(NC(=O)CSc2nc3c(c(=O)n2-c2ccccc2OC)SCC3)s1,"inconclusive [activator, single point]"
16,O=S(=O)(Cc1ccc(Cl)cc1)Nc1ccc2c(c1)OCO2,"inconclusive [activator, partial curve]"
17,CC(C)N1CCc2c(sc(NC(=O)c3cc(-c4cccs4)nc4ccccc34)c2C(N)=O)C1,"inconclusive [activator, single point]"
18,CCOc1ccc(-c2[nH]ncc2Oc2cccc(OC)c2)c(O)c1,"inconclusive [activator, single point]"
19,COCOCCn1cc(CN2CCS(=O)(=O)N(Cc3ccc(-c4ccc(Cl)c(Cl)c4)cc3)C(C(C)C)C2=O)nn1 (stereo unspecified),"inconclusive [activator, single point]"
20,CSc1nc2c(c(=O)[nH]1)CCCC2,"inconclusive [activator, single point]"
21,Cc1ccc(C2=N/C(=C/c3cccs3)C(=O)N2Nc2ccccc2)cc1,"inconclusive [activator, single point]"
22,O=C(Nc1ccc(F)c(Cl)c1)C1Cc2c(-c3cccc(F)c3)ccnc2O1 (stereo unspecified),"inconclusive [activator, single point]"
23,COc1ccc(C(=O)NNC(=S)NC(=O)C(C)(C)C)cc1,"inconclusive [activator, single point]"
24,Cc1ccc(C)c2c1NC(C(=O)O)C1CC=CC21 (stereo unspecified),"inconclusive [activator, single point]"

row,SMILES,Potency
1,Cn1c(-c2ccccc2)c(/C=N/NC(=O)c2ccc(O)cc2)c2ccccc21,"inconclusive [activator, single point]"
2,S=C(NCc1ccccc1)C(=S)NCc1ccccc1,inactive
3,CCOC(=O)c1c(C)[nH]c(C(=O)/C(C#N)=C/c2ccc(OCC)cc2)c1C,inactive
4,COC(=O)c1ccc(/C=C/c2ccc3cccc(OC(C)=O)c3n2)cc1,"inconclusive [activator, single point]"
5,COC(=O)c1ccc(/C=C(\C#N)C(=O)NC(C)c2ccccc2)cc1 (stereo unspecified),"inconclusive [activator, single point]"
6,Cc1ccc(-c2nc3cc(Cl)ccc3o2)cc1NC(=O)COc1ccccc1C,inactive
7,CS(=O)(=O)c1cccc(C(=O)Nc2ccccc2Cc2ccccc2)c1,"inconclusive [activator, single point]"
8,COc1ccc(S(=O)(=O)N2CCN(C(=O)c3oc4ccccc4c3C)CC2)cc1,inactive
9,Cn1cc(CN2CCN(c3ncccn3)CC2)c(-c2cccc(Cl)c2)n1,inactive
10,Cc1ccc(NC(=O)c2cc(C(=O)Nc3ccc(C)cc3)n(C)n2)cc1,"inconclusive [activator, single point]"
11,O=C(NC(=O)c1ccccc1F)OCc1ccc(Cl)cc1Cl,"inconclusive [activator, single point]"
12,O=S(=O)(c1ccc(Cl)cc1)N1CCN=C1SCc1cccc(Cl)c1,"inconclusive [activator, partial curve]"
13,CC(C)CCOc1ccc(C(=O)NNC(=O)CNC(=O)c2ccccc2F)cc1,inactive
14,COc1ccc(N2CCN(S(=O)(=O)c3ccc4c(c3)CCCC4)CC2)c([N+](=O)[O-])c1,"inconclusive [activator, full curve, poor fit]"
15,O=C1c2c(-c3ccc(Br)cc3)noc2CCN1Cc1cn(-c2ccccc2)nn1,"inconclusive [activator, single point]"
16,COC(=O)c1cc2c(C)nn(-c3ccccc3)c2s1,"inconclusive [activator, partial curve]"
17,Cc1ccc(-c2ccc(/C=N/O)o2)cc1[N+](=O)[O-],inactive
18,C/C(=N\NC(=O)c1ccc(OC2OCCOC2Oc2ccc(C(=O)N/N=C(\C)c3ccncc3)cc2)cc1)c1ccncc1 (stereo unspecified),"inconclusive [activator, single point]"
19,CCNC(=S)N(CCc1c(C)[nH]c2ccc(C)cc12)Cc1cccs1,"inconclusive [activator, single point]"
20,CC(=C1SC(=S)NC1=O)c1ccccc1,inactive
21,CN(CC(O)COc1ccc(S(=O)(=O)N2CCOCC2)cc1Cl)C1CCCCC1 (stereo unspecified),"inconclusive [activator, single point]"
22,O=C(CSC1=NNC(c2ccccn2)S1)Nc1ccccc1 (stereo unspecified),inactive
23,COc1ccc(-c2nc3ccc(Br)cn3c2Cc2cccc(Cl)c2)cc1OC,"inconclusive [activator, single point]"
24,C[C@H](O)C#Cc1ccc2c(c1)O[C@@H](CN(C)C(=O)c1ccncc1)[C@@H](C)CN([C@H](C)CO)S2(=O)=O,"inconclusive [activator, single point]"

row,SMILES,Potency
1,CN(C)c1ccnc2sc(C(=O)c3ccccc3)c(N)c12,active: 25.1 µM
2,S=C(NC1CCCCC1)N1CCn2cccc2C1c1cccnc1 (stereo unspecified),"inconclusive [activator, single point]"
3,CC(C)n1c(=S)[nH]c2scc(-c3cccs3)c2c1=O,"inconclusive [activator, single point]"
4,CCN1C(=O)[C@H]2[C@@H](c3ccc(OC)cc3)N[C@]3(CCCN(Cc4ccc(F)cc4)C3=O)[C@H]2C1=O,"inconclusive [activator, single point]"
5,Cc1cc(Nc2cccc(F)c2)n2nc(C)nc2n1,"inconclusive [activator, single point]"
6,CCCCC(c1nnnn1CC1CCCO1)N1CCN(c2nc3ccccc3s2)CC1 (stereo unspecified),inactive
7,Cc1cccc(C(=O)N2CCC(=O)N(C(COCc3ccc(Cl)cc3)Cc3ccccc3)CC2)c1 (stereo unspecified),"inconclusive [activator, single point]"
8,CCOc1ccc(S(=O)(=O)N2CCN(c3c(C)cccc3C)CC2)c2ccccc12,"inconclusive [activator, single point]"
9,CN(C)/C=C1\Oc2ccc3ccccc3c2C1=O,inactive
10,Cc1cc2c(SCC(=O)NCC3CCCO3)ncnc2s1 (stereo unspecified),"inconclusive [activator, single point]"
11,COc1ccccc1C(CNC(=O)c1cc(S(=O)(=O)N2CCOCC2)ccc1C)N1CCCC1 (stereo unspecified),inactive
12,CC1(C)CC(=O)C2=C(C1)NC(=O)NC2c1ccccc1Cl (stereo unspecified),inactive
13,CCCCN(C)CCC(=O)Nc1ccc(F)c(F)c1,inactive
14,O=C(O)C1C2C=CC(C2)C1C(=O)Nc1ccc2c(c1)OCCO2 (stereo unspecified),inactive
15,O=C(NC(Nc1ncccn1)C(=O)c1ccccc1)c1ccccc1 (stereo unspecified),inactive
16,COc1ccc2c(-c3ccc(SC)cc3)c(-c3ccc(S(C)(=O)=O)cc3)sc2c1,inactive
17,CC(C)CCSc1nc(N)c(C#N)cc1C#N,inactive
18,Cc1ccsc1/C=N/NC(=O)CSCc1ccc(Cl)cc1,"inconclusive [activator, single point]"
19,Cn1cnc2c1c(=O)n(Cc1cccc(Cl)c1)c(=O)n2C,"inconclusive [activator, single point]"
20,Cc1c(C(=O)NCC(C)C)sc2nc(-c3ccc(F)cc3)cn12,"inconclusive [activator, single point]"
21,S=C1NC[C@H](c2ccccc2)N1CCCCC1CCCCC1,"inconclusive [activator, single point]"
22,O=c1[nH]c(=S)[nH]c2c1C(c1ccc(Cl)cc1)OC(C1CCCCC1)C2 (stereo unspecified),"inconclusive [activator, single point]"
23,COc1ccccc1N1CCN(C(=O)CCNS(=O)(=O)c2ccc(Br)s2)CC1,"inconclusive [activator, single point]"
